These results are taken from PMC9911399, “Two distinct binding modes provide the RNA-binding protein RbFox with extraordinary sequence specificity”.

Positions count from the first letter of the chain named. The list shows a part of the results.

To fix the notation:
B1: CGGCGUC (DNA:RNA)
RNA: GGGAGACCGGAAUUCAGAUUGUCCCGGCGUCUUAAAUCCCGUCGUAGCCACCA
DNA 1: CAATCTGAATTCCGGTCTCCC
DNA 2: TGGTGGCTACGACGGGATT
B2: AUCAAUG (DNA:RNA)
RNA: B1 RNA with C25A, G26U, G27C, C28A, G29A, C31G
DNA 1: CAATCTGAATTCCGGTCTCCC
DNA 2: TGGTGGCTACGACGGGATT
B3: CGUUGAA (DNA:RNA)
RNA: B1 RNA with G27U, C28U, U30A, C31A
DNA 1: CAATCTGAATTCCGGTCTCCC
DNA 2: TGGTGGCTACGACGGGATT
B4: GUCUAGG (DNA:RNA)
RNA: GGGAGACCGGAAUUCAGAUUGUCCGUCUAGGUUAAAUCCCGUCGUAGCCACCA
DNA 1: CAATCTGAATTCCGGTCTCCC
DNA 2: TGGTGGCTACGACGGGATT
B5: UGGCGGA (DNA:RNA)
RNA: B1 RNA with C25U, U30G, C31A
DNA 1: CAATCTGAATTCCGGTCTCCC
DNA 2: TGGTGGCTACGACGGGATT
B6: UCAAGAG (DNA:RNA)
RNA: B1 RNA with C25U, G26C, G27A, C28A, U30A, C31G
DNA 1: CAATCTGAATTCCGGTCTCCC
DNA 2: TGGTGGCTACGACGGGATT
B7: ACGAAAU (DNA:RNA)
RNA: B1 RNA with C25A, G26C, C28A, G29A, U30A, C31U
DNA 1: CAATCTGAATTCCGGTCTCCC
DNA 2: TGGTGGCTACGACGGGATT
B8: GCAAAUG (DNA:RNA)
RNA: B4 RNA with U26C, C27A, U28A, G30U
DNA 1: CAATCTGAATTCCGGTCTCCC
DNA 2: TGGTGGCTACGACGGGATT
B9: GGCAGGU (DNA:RNA)
RNA: B4 RNA with U26G, U28A, A29G, G31U
DNA 1: CAATCTGAATTCCGGTCTCCC
DNA 2: TGGTGGCTACGACGGGATT
B10: AGGCCCA (DNA:RNA)
RNA: B1 RNA with C25A, G29C, U30C, C31A
DNA 1: CAATCTGAATTCCGGTCTCCC
DNA 2: TGGTGGCTACGACGGGATT
B11: GUCUGCG (DNA:RNA)
RNA: B4 RNA with A29G, G30C
DNA 1: CAATCTGAATTCCGGTCTCCC
DNA 2: TGGTGGCTACGACGGGATT
B12: AUGGUGG (DNA:RNA)
RNA: B4 RNA with G25A, C27G, U28G, A29U
DNA 1: CAATCTGAATTCCGGTCTCCC
DNA 2: TGGTGGCTACGACGGGATT
B13: CAUCAAA (DNA:RNA)
RNA: B1 RNA with G26A, G27U, G29A, U30A, C31A
DNA 1: CAATCTGAATTCCGGTCTCCC
DNA 2: TGGTGGCTACGACGGGATT
B14: CUUGACC (DNA:RNA)
RNA: B1 RNA with G26U, G27U, C28G, G29A, U30C
DNA 1: CAATCTGAATTCCGGTCTCCC
DNA 2: TGGTGGCTACGACGGGATT
B15: UAUAUUU (DNA:RNA)
RNA: B1 RNA with C25U, G26A, G27U, C28A, G29U, C31U
DNA 1: CAATCTGAATTCCGGTCTCCC
DNA 2: TGGTGGCTACGACGGGATT
B16: GACAGGG (DNA:RNA)
RNA: B4 RNA with U26A, U28A, A29G
DNA 1: CAATCTGAATTCCGGTCTCCC
DNA 2: TGGTGGCTACGACGGGATT
B17: UUUUCAC (DNA:RNA)
RNA: B4 RNA with G25U, C27U, A29C, G30A, G31C
DNA 1: CAATCTGAATTCCGGTCTCCC
DNA 2: TGGTGGCTACGACGGGATT
B18: UGGGCUA (DNA:RNA)
RNA: B1 RNA with C25U, C28G, G29C, C31A
DNA 1: CAATCTGAATTCCGGTCTCCC
DNA 2: TGGTGGCTACGACGGGATT
B19: GGGUAGA (DNA:RNA)
RNA: B4 RNA with U26G, C27G, G31A
DNA 1: CAATCTGAATTCCGGTCTCCC
DNA 2: TGGTGGCTACGACGGGATT
B20: CAGCUGU (DNA:RNA)
RNA: B1 RNA with G26A, G29U, U30G, C31U
DNA 1: CAATCTGAATTCCGGTCTCCC
DNA 2: TGGTGGCTACGACGGGATT

The test concerns the target T1, RBFOX1 RRM RbFoxmut (Fox-RRM*) (Homo sapiens, UniProt Q9NWB1 109-208, R118D;E147R;N151S;E152T).
T1 sequence: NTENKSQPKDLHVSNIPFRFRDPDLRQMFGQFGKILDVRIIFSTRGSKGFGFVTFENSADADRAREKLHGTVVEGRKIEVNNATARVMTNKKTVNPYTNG
Briefly: EMSA; HiTS-Eq, 1 nM pool, 10 min; buffer printed only for the single-RNA assays: 10 mM Tris pH 7.5, 150 mM NaCl, 3.4 mM EDTA, 0.001% NP-40, 30 C. The note with it: tags: His6 N-terminal (pET28a); label: 5' 32P. Summed up:
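These values rest on relative association constants, computed from read-count changes of each RNA species versus the control reaction and normalised to the cognate motif. Reads came from free RNA recovered by 8% native PAGE after purified RbFox RRM (wild type or mutant) at increasing concentrations was equilibrated for 10 min in 50 µL with 1 nM of a 5′-radiolabelled pool with 7 randomized nucleotides and DNA-annealed flanks.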
Background: Mobility shift assays separate free from complexed probe on a gel.
In the case of B1, the binding signal was 0.152 KA relative to UGCAUGU.

With B2, the binding signal is 0.107 KA relative to UGCAUGU. The same measure for B3: 0.133 KA relative to UGCAUGU; for B4: 0.103 KA relative to UGCAUGU; for B5: 0.0963 KA relative to UGCAUGU. B6: the binding signal is 0.0954 KA relative to UGCAUGU. For the molecule B7, the binding signal is 0.0795 KA relative to UGCAUGU. The same measure for B8: 0.111 KA relative to UGCAUGU. The result for B9 reads 0.0607 KA relative to UGCAUGU; that for B10, 0.079 KA relative to UGCAUGU; that for B11, 0.171 KA relative to UGCAUGU. The result for B12 reads 0.154 KA relative to UGCAUGU. As to B13, the binding signal was 0.0999 KA relative to UGCAUGU. The same measure for B14: 0.0595 KA relative to UGCAUGU. As to B15, the binding signal was 0.109 KA relative to UGCAUGU.

On to B16, for which the binding signal is 0.0654 KA relative to UGCAUGU. The same measure for B17: 0.0745 KA relative to UGCAUGU; for B18: 0.141 KA relative to UGCAUGU.

Regarding B19, the binding signal is 0.134 KA relative to UGCAUGU. The same measure for B20: 0.123 KA relative to UGCAUGU.
